This passage reports Kd, koff and kon results from patent publication US20260234246A1 (CAEDO ONCOLOGY, published 2026).

The target of this test is T1, recombinant CD47 (recCD47), SinoBiological 12283-H27H-B, biotinylated (human, UniProt Q08722 partial chain, biotinylated (AVI-tag)).
T1 construct: Bought protein, 17 kDa; At 17 kDa it can only be a part of it; also called recombinant biotinylated CD47; not shown: C-terminal His- and AVI-tag
Briefly: SPR Biacore S200, single-cycle, recCD47 on SA chip 100 RU, CO-1bi as analyte, 25 C, 1:1 model. For orientation: Surface plasmon resonance follows binding to a sensor surface in real time, without labels.

T1 sequence (Q08722 19-139 limits assumed): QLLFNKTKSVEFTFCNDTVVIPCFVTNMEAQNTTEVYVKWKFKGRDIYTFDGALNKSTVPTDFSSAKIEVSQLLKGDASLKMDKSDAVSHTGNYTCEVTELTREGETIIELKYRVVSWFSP

B1: CO201-scFv-Fc-bi (bivalent scFv-Fc fusion protein of CO201 with IgG4 Fc) (Fc fusion)
chain: QVQLVQSGSELKKPGASVKVSCKASGYTFTNFGMHWVRQAPGQGLEWMGWINTYTGEPTYTDDFKGRFVFSLDTSVSTAYLQISSLKAEDTAVYYCARGDYRYGDSWGQGTTVTVSSGGGGSGGGGSGGGGSDIVMTQTPLSLSVTPGQPASISCRSSQSLVHSNGKTYLHWYLQKPGQPPQLLIYRVSNRFSGVPDRFSGSGSGTDFTLKISRVEAEDVGVYYCSQSTHVPFTFGQGTKLEIKSKYGPP[in this place human IgG4 Fc]
notes: One chain = CO201 scFv (VH - GS linker - VL) - hinge - CH2 - CH3; the chains dimerise through the Fc to a bivalent molecule (103.5 kDa); also called CO-1bi; CO-1 bi
Take B1: the equilibrium dissociation constant (Kd) was determined as 0.04 nM, the koff is 0.00019 s⁻¹ and the kon amounted to 4.9e+06 M⁻¹ s⁻¹.

A word on the Kd: it is a measure of binding affinity in units of concentration. What is called koff is a measure of how fast the partners let go of each other. A word on the kon: it is the rate constant with which the complex forms.
